Data on 3 molecules can be found in patent US20240209078A1 (Amgen, published 2024).

Some targets named below: CD3ε chain (human, UniProt P07766 23-126, limits assumed); human CD3ε chain (human, UniProt P07766); human CDH3 (human, UniProt P22223 108-829); human MSLN (human, UniProt Q13421 37-598).
Holding throughout (test): cell-based or functional assay

CD3ε chain, sequence (P07766 23-126 limits assumed): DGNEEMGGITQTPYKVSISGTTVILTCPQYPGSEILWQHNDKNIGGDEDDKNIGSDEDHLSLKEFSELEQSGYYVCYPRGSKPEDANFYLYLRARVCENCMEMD
human CD3ε chain, sequence (P07766 23-207 limits assumed): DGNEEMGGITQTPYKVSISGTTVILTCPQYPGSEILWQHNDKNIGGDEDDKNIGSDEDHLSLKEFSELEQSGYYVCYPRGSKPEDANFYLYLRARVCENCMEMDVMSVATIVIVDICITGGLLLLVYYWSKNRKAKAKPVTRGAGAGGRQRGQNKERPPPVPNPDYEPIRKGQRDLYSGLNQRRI

B1: CL1 9-G4 CC × 5B1.05 × scFc × FL 4-E9 CC × 5B1.05 (bispecific antibody)
chain: QVQLVQSGAEVKKPGASVKVSCKASGYTFTDYYMHWVRQAPGQCLEWMGWINPNSGGPNYAQKFQGRVTMTRDTSISTAHMELSRLRSDDTAVYYCAREKHAVAGIGFDYWGQGTLVTVSSGGGGSGGGGSGGGGSDIQMTQSPSSVSASVGDRVTITCQASQDISNYLNWYQQKPGKAPKLLIYAASSLESGVPSRFSGSGSGTDFTLTISSLQPEDFATYYCQQANSFPLTFGCGTKVDIKSGGGGSEVQLVESGGGLVQPGGSLKLSCAASGFTFSKYAMNWVRQAPGKGMEWVARIRSKYNNYATYYAEAVKGRFTISRDDSKNTVYLQMNNLKTEDTAVYYCVRAGNFGSSYISYWAYWGQGTLVTVSSGGGGSGGGGSGGGG[sequence of about 120 residues omitted]GGGSGGGGSGGGGS[sequence of human IgG1 Fc with R292C N297G V302C (EU numbers) omitted]GGGGSGGGGSGGGGSGGGGSGGGGSGGGGS[sequence of human IgG1 Fc with R292C N297G V302C (EU numbers) omitted]GGGGSGGGGSGGGGSQVTLKESGPTLVKPTETLTLTCTVSGFSFRNARMGVSWIRQPPGKCLEWLAHIFSNDEKSYSTSLKSRLTISKDTSKSQVVLTMTNMDPVDTATYFCARVPEYSSGWYRFDYWGQGTLVTVSSGGGGSGGGGSGGGGSDIQMTQSPSSLSASVGDRVTISCRASQSIRSYLNWYQQKPGKAPKLLIYATSSLQGGVPSRFSGSGSGTDFTLTISSLQPEDFATYYCQQSYSTPFTFGCGTKVEIKSGGGGSEVQLVESGGGLVQPGGSLKLSCAASGFTFSKYAMNWVRQAPGKGMEWVARIRSKYNNYATYYAEAVKGRFTISRDDSKNTVYLQMNNLKTEDTAVYYCVRAGNFGSSYISYWAYWGQGTLVTVSSGGGGSGGGGSGGGG[sequence of about 120 residues omitted]
In the case of B1, the “Activity reduction of single CD3 binding domain in molecule compared to high affinity binding domain I2C with KD 1.2E-08M” value with CD3ε chain is ~145 fold.

B2: CL1 9-G4 CC × 5B1.09 × scFc × FL 4-E9 CC × 5B1.09 (bispecific antibody)
chain: QVQLVQSGAEVKKPGASVKVSCKASGYTFTDYYMHWVRQAPGQCLEWMGWINPNSGGPNYAQKFQGRVTMTRDTSISTAHMELSRLRSDDTAVYYCAREKHAVAGIGFDYWGQGTLVTVSSGGGGSGGGGSGGGGSDIQMTQSPSSVSASVGDRVTITCQASQDISNYLNWYQQKPGKAPKLLIYAASSLESGVPSRFSGSGSGTDFTLTISSLQPEDFATYYCQQANSFPLTFGCGTKVDIKSGGGGSEVQLVESGGGLVQPGGSLKLSCAASGFTFSKYAMNWVRQAPGKGMEWVARIRSKYNNYATYYADAVKGRFTISRDDSKNTVYLQMNNLKTEDTAVYYCVRAGNFGKSYISYFAYWGQGTLVTVSSGGGGSGGGGSGGGGSQTVVTQEPSLTVSPGGTVTLTCGSSTGAVTSGNYPNWVQKKPGQAPRGLIGGTKFLAPGTPARFSGSLSGGKAALTLSGVQPEDEAEYYCVLYYSNRWVFGGGTKLTVLGGGGSGGGGSGGGGS[sequence of human IgG1 Fc with R292C N297G V302C (EU numbers) omitted]GGGGSGGGGSGGGGSGGGGSGGGGSGGGGS[sequence of human IgG1 Fc with R292C N297G V302C (EU numbers) omitted]GGGGSGGGGSGGGGSQVTLKESGPTLVKPTETLTLTCTVSGFSFRNARMGVSWIRQPPGKCLEWLAHIFSNDEKSYSTSLKSRLTISKDTSKSQVVLTMTNMDPVDTATYFCARVPEYSSGWYRFDYWGQGTLVTVSSGGGGSGGGGSGGGGSDIQMTQSPSSLSASVGDRVTISCRASQSIRSYLNWYQQKPGKAPKLLIYATSSLQGGVPSRFSGSGSGTDFTLTISSLQPEDFATYYCQQSYSTPFTFGCGTKVEIKSGGGGSEVQLVESGGGLVQPGGSLKLSCAASGFTFSKYAMNWVRQAPGKGMEWVARIRSKYNNYATYYADAVKGRFTISRDDSKNTVYLQMNNLKTEDTAVYYCVRAGNFGKSYISYFAYWGQGTLVTVSSGGGGSGGGGSGGGGSQTVVTQEPSLTVSPGGTVTLTCGSSTGAVTSGNYPNWVQKKPGQAPRGLIGGTKFLAPGTPARFSGSLSGGKAALTLSGVQPEDEAEYYCVLYYSNRWVFGGGTKLTVL
B2: the “Activity reduction of single CD3 binding domain in molecule compared to high affinity binding domain I2C with KD 1.2E-08M” value with CD3ε chain was ~92 fold.

B3: MS 15-B12 CC × I2L × scFc × CH3 15-E11 CC × I2L (bispecific antibody)
chain: QVQLQESGPGLVKPSETLSLTCTVSGGSISSSSYFWGWIRQPPGKCLEWIGNIYYSGSSNYNPSLKSRVTISVDTSKNQFSLKLSSVTAADTAVYYCARLPRGDRDAFDIWGQGTMVTVSSGGGGSGGGGSGGGGSDIVMTQSPSSLSASVGDRVTITCRASQGISNYLAWYQQKPGKVPKLLIYAASTLQSGVPSRFSGSGSGTDFTLTISSLQPEDFATYYCQQSYSTPFTFGCGTKVEIKSGGGGSEVQLVESGGGLVQPGGSLKLSCAASGFTFNKYAMNWVRQAPGKGMEWVARIRSKYNNYATYYADAVKDRFTISRDDSKNTLYLQMNNLKTEDTAVYYCVRAGNFGSSYISYFAYWGQGTLVTVSSGGGGSGGGGSGGGGSQTVVTQEPSLTVSPGGTVTITCGSSTGAVTSGNYPNWIQKKPGQAPRGLIGGTKFLAPGTPARFSGSLEGGKAALTLSGVQPEDEAEYYCVLYYSNRWVFGSGTKLTVLGGGGSGGGGSGGGGS[sequence of human IgG1 Fc with R292C N297G V302C (EU numbers) omitted]GGGGSGGGGSGGGGSGGGGSGGGGSGGGGS[sequence of human IgG1 Fc with R292C N297G V302C (EU numbers) omitted]GGGGSGGGGSGGGGSQVQLVQSGAEVKKPGASVKVSCKASGYTFTNYWMNWVRQAPGQCLEWMGNIAYGVKGTNYNQKFQGRVTMTVDTSSSTAYMELSRLRSDDTAVYYCATRYFYVMDYWGQGTLVTVSSGGGGSGGGGSGGGGSDIQMTQSPSSLSASVGDRVTITCRASQDISNYLNWYQQKPGKVPKLLIYYTSRLHSGVPSRFSGSGSGTDFTLTISSLQPEDVATYYCVQYAQFPLTFGCGTKVEIKSGGGGSEVQLVESGGGLVQPGGSLKLSCAASGFTFNKYAMNWVRQAPGKGMEWVARIRSKYNNYATYYADAVKDRFTISRDDSKNTLYLQMNNLKTEDTAVYYCVRAGNFGSSYISYFAYWGQGTLVTVSSGGGGSGGGGSGGGGSQTVVTQEPSLTVSPGGTVTITCGSSTGAVTSGNYPNWIQKKPGQAPRGLIGGTKFLAPGTPARFSGSLEGGKAALTLSGVQPEDEAEYYCVLYYSNRWVFGSGTKLTVL
Regarding B3, the “Activity reduction of single CD3 binding domain in molecule (I2L) compared to high affinity binding domain I2C” value with human CD3ε chain is ~98 fold. Also, in the experiment with human CDH3, the “EC50 GSU KO MSLN (cytotoxicity; cells CDH3+, MSLN-)” value turned out to be 0.0712 nM; the “EC50 GSU wt (cytotoxicity; cells CDH3+, MSLN+)” value turned out to be 0.00066 nM; the “fold selectivity gap, GSU KO MSLN against GSU wt” value stood at 108 fold. In the experiment with human MSLN, the “EC50 GSU KO CDH3 (cytotoxicity; cells CDH3-, MSLN+)” value amounted to 0.0196 nM; the “EC50 GSU wt (cytotoxicity; cells CDH3+, MSLN+)” value was 0.00066 nM; the “fold selectivity gap, GSU KO CDH3 against GSU wt” value worked out at 30 fold.
